According to the supplement of paper PMC3334620:
In all, about 33,000 sequences were measured (“E-score (-0.5 to 0.5)”: median about -0.054, highest 2% from about 0.35 on). The list shows a part of the results.

Biological target: T1, Stb5 (UniProt P38699)
T1 sequence: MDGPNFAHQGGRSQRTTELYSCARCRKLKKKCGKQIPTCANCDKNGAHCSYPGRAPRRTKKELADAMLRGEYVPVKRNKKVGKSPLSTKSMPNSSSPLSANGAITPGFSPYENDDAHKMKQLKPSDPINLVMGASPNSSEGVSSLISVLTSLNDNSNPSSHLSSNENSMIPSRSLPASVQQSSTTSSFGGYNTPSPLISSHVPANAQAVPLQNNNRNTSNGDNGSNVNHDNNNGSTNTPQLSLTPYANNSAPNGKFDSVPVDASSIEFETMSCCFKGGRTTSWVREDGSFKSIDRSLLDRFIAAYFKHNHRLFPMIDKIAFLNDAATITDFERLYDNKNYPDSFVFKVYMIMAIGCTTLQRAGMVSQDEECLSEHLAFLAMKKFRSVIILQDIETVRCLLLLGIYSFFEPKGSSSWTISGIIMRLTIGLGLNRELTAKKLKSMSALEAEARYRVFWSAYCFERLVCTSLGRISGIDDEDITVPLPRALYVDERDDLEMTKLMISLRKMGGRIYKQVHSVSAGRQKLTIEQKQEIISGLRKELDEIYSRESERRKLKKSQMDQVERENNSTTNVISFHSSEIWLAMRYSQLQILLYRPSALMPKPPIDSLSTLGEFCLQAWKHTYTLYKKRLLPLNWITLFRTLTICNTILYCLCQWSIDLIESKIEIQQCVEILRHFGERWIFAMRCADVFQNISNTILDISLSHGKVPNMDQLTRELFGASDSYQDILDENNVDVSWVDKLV
Assay: PBM E-score (8-mer binding enrichment) (E-score (-0.5 to 0.5)); higher = stronger / more preferred TF binding; most listed sequences are background and not binding sites
Settings: protein concentration: 200 nM; construct: GST-full length
Outline: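 PURExpress in vitro transcription/translation supplied GST-tagged yeast transcription factors, either full-length or DNA-binding domain. Applied at about 100-200 nM to universal all-10-mer Agilent arrays double-stranded by primer extension, the bound protein was detected with fluorescent anti-GST. E-scores, modified Wilcoxon-Mann-Whitney statistics, were given by the Universal PBM Analysis Suite to ungapped eight-base words pooled with their reverse complements after masliner normalisation.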

Sequence	PBM E-score
TCATACCA	-0.0581
GCGGTAAA	0.313
ATACCTCC	0.288
ACGCTCCA	-0.077
ACCTCCCC	0.0574
CCCGCCCG	0.298
AGCTGACC	-0.174
CGCGAACG	0.0406
AAACGATC	-0.234
GAATAGGC	-0.066
CGGCCTCC	0.129
ACCTACGC	-0.024
AAGGCCGA	0.46
AGTAACAT	-0.0434
AGACGTAG	-0.232
ATGGACGC	-0.0145
GATCCTCA	-0.147
AGGGCACA	-0.323
CAGTCTCA	-0.196
ATGCCAGC	-0.0761
GGGATCCC	0.0894
AGCATGAT	-0.112
ACTACTGA	-0.267
GAAGGTGA	0.0105
AAAACTTC	0.027

Sequence	PBM E-score
GGGATGAA	0.0485
AGTGCTTC	-0.198
AGCATTAC	0.0205
ACTGCCGG	0.269
AAAGTATC	0.0263
ATAAACCA	-0.078
ATCGCCTC	-0.271
AATCTCCG	0.423
TGCCTGAA	-0.243
CTCGGCCC	0.079
CTCCGATC	0.327
ACTCACAG	-0.178
AGGAATAG	-0.067
CATTTCAA	-0.2
GAGGCATA	-0.0863
GCTGGAAA	-0.0514
TGTCGAAA	-0.315
CGAACTGC	-0.0387
CGACTTAA	-0.0485
AGAAACTG	-0.0721
GGCAATAA	0.313
CTCCTGCC	-0.135
ATCTAGTG	-0.0673
AGTAAGGG	0.00422
CAGATTGA	-0.104

Sequence	PBM E-score
GGTGGAGA	-0.177
CAATAGTG	0.164
GGAAAGCA	0.024
CTGGTGAC	-0.0304
GATCAAGC	-0.136
AGGGGTGG	-0.15
CAAGACTG	-0.252
CACACGTG	-0.185
GAGCACCA	-0.263
CCGCCAAG	0.275
CATCCGTA	0.164
CGCCTGGC	0.00215
ACAAGACG	-0.0895
CCGATTTA	0.271
ACCTAAGA	-0.169
AGGAATAA	-0.0025
ACAAATCT	-0.16
ATACCATG	0.00967
ACCCTGCC	-0.196
GGCTCGCA	-0.106
GCACAATA	-0.048
ATTGGAAG	0.0232
GATGCGAA	-0.0255
ATGTATCC	0.134
CGTTCTGC	0.0411

Sequence	PBM E-score
ACGTGTGG	-0.197
CTCGGCAC	0.187
AGTTGTGG	-0.192
ACCAAGCC	-0.0987
AAGGCTAC	-0.214
CCCAGAAA	-0.274
TAGCCGGA	0.279
GGGCAAAC	0.161
AACGACAG	-0.205
GACGCCAA	-0.103
GAAGAGTA	-0.108
AAATAGAG	-0.00964
CCAAGCTA	-0.109
CGGGAACA	0.276
AGTTTAAT	0.0203
AATCTAAG	-0.184
TCTTGGCA	-0.0429
AAACCGCT	0.0494
CCTGAGCC	-0.156
ACATGGTC	-0.137
CCAACATC	0.00274
ACACGTCT	-0.11
AAACGAGC	-0.209
CTACACCA	0.00298
ATTCACCA	-0.0265

Sequence	PBM E-score
CTTGTACA	-0.212
GATGAGGA	-0.0414
AGGCGTTC	-0.221
TATAGACA	-0.178
GTATGAAA	0.087
ATTCGAGC	-0.227
GGATTGAA	0.116
GGGGGTAA	0.248
ACAGGGTA	-0.168
AAGTAACG	0.0665
GGGGGGGA	-0.24
AAGTTAGT	0.0431
AACTACTG	-0.0249
CACGAGTA	-0.0773
GGGGACAA	0.0894
TCACATGA	-0.199
GAATACGA	-0.212
ATGGATAG	-0.0412
AGTTGCGC	0.0696
ATAGACAA	-0.202
AACAGGGT	-0.0556
CCCCTGCC	-0.17
CGATAACG	0.058
ACCAAAAT	0.0608
CATGCATC	0.0354

Sequence	PBM E-score
CTCAAGTA	-0.174
ACCCCGGC	0.343
ACCCCCCC	-0.295
CAGATACA	-0.0501
GATAACGC	0.174
AGGCCAGC	-0.248
CCTGCGGA	0.111
CAACATCA	-0.161
TAGGTACA	-0.132
CGCTGCCA	0.0728
ACGTTTAT	-0.0891
AGCAGACG	0.0811
GTCTTTGA	-0.0135
CCACGATC	-0.264
GTAGCCAA	-0.105
CCAGAGAG	-0.284
CGCTGGCC	-0.0183
AGCAGCTG	-0.185
CGAGAGTA	-0.133
CGACAGTC	-0.0974
AGTATAAG	-0.0823
GTAGGCGA	-0.0824
AAACCGTT	0.0437
ATAAGATA	0.071
CAGTGTGC	-0.203

Sequence	PBM E-score
CAGAGTGA	-0.0472
ACACTCCG	0.265
AGGATGGC	0.0229
AAGACCAC	-0.148
CTCATTGA	-0.183
AACTCGAT	-0.0673
CGATGCCC	-0.012
ATTGGAGA	-0.0644
CGGTGCGA	0.384
AATTGGAA	-0.0303
CCAGACGG	0.179
ACAACTCA	-0.164
ACGTGGGA	-0.265
GTACTCAA	-0.185
AATTCGAT	0.133
AGGCTATC	-0.0947
AGAGGTTA	-0.0424
AATCACCG	0.441
AATAGGAA	-0.233
CCGCTATA	0.302
TGCCGAAA	0.252
GAGCCTGC	-0.224
AAACGGAC	0.282
CTTAAGAA	-0.172
CTCATTCA	-0.195

Sequence	PBM E-score
CATTATAC	0.0862
CCAGCCTC	-0.288
GCGTTGGA	-0.053
ATGAGCCC	0.162
TAAAGCCA	-0.1
AAGGCGCC	0.135
CCAAGTCC	0.0932
TCATGTCA	-0.301
CTGGGATC	-0.1
ACGTCCTG	-0.238
CAGAATAG	-0.24
GCCCGGAA	0.128
ACAAGGCT	-0.171
CTAACATC	-0.0323
TACTCCGA	0.234
TACGTCGA	-0.126
CCACCGCG	0.3
CCTGTCCA	-0.279
CCAGTGAG	-0.17
AATCGTCC	0.0731
CAAGCTGA	-0.184
CTTCCTTA	-0.182
GATGTTGA	-0.138
CCCTGTGC	-0.0362
ACCCTACT	-0.0942

Sequence	PBM E-score
AAGGGGCA	-0.221
GGGGTTTA	0.329
CAGTTGCC	-0.0751
AAATGGGT	-0.143
ATTATGGA	0.0112
GCACAACC	-0.0867
CAAATCTC	-0.0196
CTGATCTC	-0.308
AGTTTCGG	0.108
GAAACGCC	0.279
TGCAGCAA	-0.194
GAGGCATC	-0.282
CCGGGGGA	0.219
AGACAGGA	-0.266
ATGCAATG	-0.0465
ATCGCTGC	0.125
AGCCGGCG	0.248
TCCGTAAA	0.175
GTAGAGCA	-0.111
ACACGACA	-0.226
ACAACGAT	-0.00466
CAGGCCGA	0.153
CCCTCGGA	0.192
CGACCCAG	0.125
CTTCTCAC	-0.0879

Sequence	PBM E-score
CCTCGCAC	-0.0558
TCTGACCA	-0.317
AGCGCTCG	0.114
ACTCTGGG	-0.196
ATGGATTA	-0.193
ACATGGCT	-0.131
AGTTGGTG	-0.103
CCTCATAA	-0.087
CCACCGGA	0.329
ACAACCAC	0.0443
GCGGCGAC	0.297
ATCATTGC	-0.147
TGATACCA	0.0905
CTTCGGAC	0.223
AGACAAGC	-0.166
AAACGCTC	-0.00871
CGTAGCAC	0.0605
TCGATGCA	-0.2
AATTGGGT	-0.154
GAGAGATC	-0.118
AAATCGAC	-0.0539
ATCGCCCA	-0.255
CTGACGTC	-0.289
AAAGAGAA	-0.00974
ACCAACAA	-0.199

Sequence	PBM E-score
CCCTTTCC	0.0224
CCTCAAGA	-0.188
AGGTAACT	-0.122
ATGGCCAG	-0.178
AGCGAAAA	-0.0961
TCAACGAA	-0.00134
CTTGTTTA	-0.00122
ACTTTCCC	0.178
CAATCTTA	-0.142
AACGCGGT	0.243
GTATGCCA	-0.162
ACCAGCGG	0.251
CCGTGATC	0.0557
ACCTTGCA	-0.23
ACGACGAA	-0.0817
ACTCTACT	-0.197
CCCCCAGA	-0.249
AGAGAAGA	-0.152
TTGAAAAA	-0.186
AAAGTCTT	-0.135
CGTAATTC	0.0295
AACTTATG	-0.125
CACCCAAC	-0.144
ATTGCGTC	0.0727
CTTAACCC	0.129

Sequence	PBM E-score
ACTTGCAG	-0.236
CGCCAGTC	0.131
ATAAGCTA	-0.125
ACCTACTC	-0.115
AGCCGGCC	0.111
AAGCTTGA	-0.0796
AAGTCAGA	-0.103
CACGGTCA	0.0858
GAAATATC	0.151
GCCCAAAC	-0.0152
AGTATGTC	-0.178
CACCTACA	-0.0718
ATTAGATC	0.124
GCAAGCTA	-0.239
AACTGACT	-0.0187
GCGTACAC	-0.0888
ATCGGATG	0.168
CTTGCAGC	-0.116
AACGTAAG	-0.215
GATTCTGA	-0.00721
CAATACTG	-0.203
ATCTTTAC	0.0505
TAATCGTA	-0.118
CCCAAAAA	-0.103
AGAGGATC	-0.332

Sequence	PBM E-score
TCCTGAGA	-0.0464
AAGTAATA	0.0108
GTCCACAA	-0.26
GCACACAC	-0.151
ACCTAATG	-0.156
CCGCCTAC	0.217
CCAAGAAC	-0.0658
AGTTCAAT	-0.12
ACTACAAA	-0.0958
TTAGCTAA	-0.219
CGGTCCGC	0.298
ACCACAAG	-0.197
ACGATCCG	0.126
ATTGCGTG	-0.00502
GGTCGAGA	-0.178
ATGTCGAG	-0.144
CCGGTGCC	0.328
ATGCCATC	-0.0344
AACCCGGA	0.205
ACCTAGCC	0.0595
AGGCTGTG	-0.258
GTTCAGTA	-0.132
ACGCGGTA	0.215
GCATATAC	0.156
CTCGGATC	0.115

Sequence	PBM E-score
CAACTCTG	-0.0585
AACAGACC	-0.00407
CGTTATCC	0.102
CCTGACCG	-0.0108
CATTCGCC	0.0286
AAAGATTT	-0.0925
CACAGTAC	-0.201
CTCCATTC	-0.191
AAATCATT	-0.11
CTACGGTC	0.17
CTCGGGGC	0.215
AGAATCCC	0.0371
CCCTTTTC	-0.197
ATTGCTCC	0.234
CAGTCCGG	0.189
CACAACAC	-0.122
CATAGGCG	-0.114
TACACCTA	-0.109
CCTTCCAA	-0.194
